# Results from patent publication US10292989B2, “General anesthetics that are not neurotoxic” (University of Virginia Patent Foundation, priority 2014, dated 2019).
# What was measured:
# [1] = tested on: voltage-gated Na+, K+, N- and L-type HVA Ca2+ channels, glutamate and GABA-gated channels; conditions: cited from earlier work
# [2] = target: recombinant Cav2.3 currents (Homo sapiens, UniProt Q15878); conditions: read-out: IC50, recombinant Cav2.3 currents; cited from earlier work
# [3] = target: T1, T-channels in rat DRG neurons (Rattus norvegicus, UniProt Q9EQ60); conditions: cited from earlier work
# T1 construct: endogenous in cells; host or cells: acutely dissociated rat DRG neurons
# [4] = tested on: tadpoles; conditions: in vivo; cited from earlier work
# [5] = tested on: GABAA currents; conditions: cited from earlier work
# [6] = tested on: postsynaptic T-channels in DH neurons; test: Current-clamp recording from lamina I-II DH neurons in spinal cord slices; format: cell-based; conditions: 1 μM
# Protocol: a. […] We began by studying the role of postsynaptic T-channels in DH neurons using current-clamp recording from unidentified lamina I-II DH neurons in spinal cord slices in vitro. To exclude synaptic currents, our external solution contained 20 μM picrotoxin, 50 μM d-APV and 5 μM NBQX to block inhibitory and excitatory synaptic currents, respectively. We first injected −300 pA of current via the recording electrode for 500 ms, which hyperpolarized the resting membrane potential (RMP) and allowed T-channels to recover from inactivation. This protocol served to assess input resistance (Rin) and to evoke rebound action potential (AP) firing. The top line in FIG. 3A depicts the protocol of current injection while bottom traces represent membrane responses. […] We then applied 1 μM TTA-P2 in the external solution for 5 minutes and repeated the same recording protocol (FIG. 3B, bottom trace). […] This finding was consistent in all DH cells challenged with TTA-P2: control: 1.25±0.25 APs; TTA-P2; 0±0 APs (n=4, p<0.05). […] To investigate the possible role of T-channels in spinal nociceptive transmission in vivo, we used intrathecal (i.t.) injections and measured thermal nociceptive responses to noxious heat in adult naïve rats using methods as we described elsewhere (Messinger et al., 2009; Obradovic et al., 2014, PLoS ONE 9(4): e91467. doi:10.1371/journal.pone.0091467). For i.t. injections, rats were briefly anesthetized with 1.5-2% isoflurane and thermal paw withdrawal latencies (PWLs) were measured starting from 30 minutes following injection. […] After 90 minutes, thermal PWLs in both paws returned to near baseline levels and remained stable up to 180 minutes of recording.
# [7] = tested on: adult naïve rats; test: Thermal paw withdrawal latency after i.t. injection in naive rats; format: in vivo, rat; conditions: 23 μg i.t., both paws, 30 and 60 minutes post injection
# Protocol: a. […] We began by studying the role of postsynaptic T-channels in DH neurons using current-clamp recording from unidentified lamina I-II DH neurons in spinal cord slices in vitro. To exclude synaptic currents, our external solution contained 20 μM picrotoxin, 50 μM d-APV and 5 μM NBQX to block inhibitory and excitatory synaptic currents, respectively. We first injected −300 pA of current via the recording electrode for 500 ms, which hyperpolarized the resting membrane potential (RMP) and allowed T-channels to recover from inactivation. This protocol served to assess input resistance (Rin) and to evoke rebound action potential (AP) firing. The top line in FIG. 3A depicts the protocol of current injection while bottom traces represent membrane responses. […] To investigate the possible role of T-channels in spinal nociceptive transmission in vivo, we used intrathecal (i.t.) injections and measured thermal nociceptive responses to noxious heat in adult naïve rats using methods as we described elsewhere (Messinger et al., 2009; Obradovic et al., 2014, PLoS ONE 9(4): e91467. doi:10.1371/journal.pone.0091467). For i.t. injections, rats were briefly anesthetized with 1.5-2% isoflurane and thermal paw withdrawal latencies (PWLs) were measured starting from 30 minutes following injection. […]
# [8] = tested on: rats; test: 8-arm radial arm maze (RAM) after exposure at PND7; format: in vivo, rat
# Protocol: (§1) To assess cognitive abilities of our rats we tested their spatial working memory using the 8-arm radial arm maze test (RAM). We began by comparing the overall appearance and daily weight of rats in each group (saline, cyclodextrin, 3β-OH at 10 mg/kg and ketamine at 40 mg/kg) since nutritional status and general state of health are critically important for cognitive development. Based on their general appearance, rats in different groups could not be distinguished from each other. Similarly, there was no difference in daily weight gain among the groups (FIG. 13A). The time points when the animals were treated (PND 7), food restricted (from PND 45), tested on the RAM (from PND 53) and permitted to eat ad libitum (from PND 70) are indicated on the graph. Food restriction, a necessary component of the RAM learning protocol, was limited so that no rat lost more than 10%-15% of its body weight.
# To further scrutinize how the acquisition rate of 3β-OH-treated rats compares to ketamine and vehicle groups, we plotted the cumulative percent scores for ketamine-treated animals relative to recorded cumulative percent scores for other groups, using a percent-percent plot (p-p plot) (FIG. 14). […] The learning behavior of 3β-OH-treated rats is similar to that of sham controls resulting in a large gap (shaded area) in learning ability between ketamine-treated (lower blue dotted line) and 3β-OH-treated animals (upper red dotted line). A slight slowing in the acquisition rate observed with 3β-OH-treated rats when compared to vehicle controls (saline—SAL and cyclodextrin—CYCL) during the mid-portion of training (as discussed in FIG. 13C) is highlighted with rectangles.
# [9] = tested on: activated caspase-3 in developing brain; test: Activated caspase-3 staining of vulnerable brain regions in PND7 rat pups
# [10] = Daily weight gain after exposure at PND7; format: in vivo, rat; conditions: 3β-OH at 10 mg/kg, ketamine at 40 mg/kg, treated PND 7
# Protocol: as §1
# [11] = tested on: rat pups (PND7); test: Loss of righting reflex (LORR) in PND7 rat pups, i.p.
# [12] = target: T2, recombinant human Cav2.3 channels (Homo sapiens, UniProt Q15878); test: Recombinant human Cav2.3 currents in HEK 293 cells; format: cell-based; conditions: HEK293, read-out: inhibition of recombinant Cav2.3 inward current (of control pre-drug values)
# T2 construct: expressed in transfected cells
# Source text: Here, we examined the sensitivity of recombinant human Cav2.3 channels stably expressed in human embryonic kidney (HEK) 293 cells to 3β-OH.
# [13] = rat, in vivo, intraperitoneal, 40 mg/kg
# T1 sequence (Q9EQ60 whole entry): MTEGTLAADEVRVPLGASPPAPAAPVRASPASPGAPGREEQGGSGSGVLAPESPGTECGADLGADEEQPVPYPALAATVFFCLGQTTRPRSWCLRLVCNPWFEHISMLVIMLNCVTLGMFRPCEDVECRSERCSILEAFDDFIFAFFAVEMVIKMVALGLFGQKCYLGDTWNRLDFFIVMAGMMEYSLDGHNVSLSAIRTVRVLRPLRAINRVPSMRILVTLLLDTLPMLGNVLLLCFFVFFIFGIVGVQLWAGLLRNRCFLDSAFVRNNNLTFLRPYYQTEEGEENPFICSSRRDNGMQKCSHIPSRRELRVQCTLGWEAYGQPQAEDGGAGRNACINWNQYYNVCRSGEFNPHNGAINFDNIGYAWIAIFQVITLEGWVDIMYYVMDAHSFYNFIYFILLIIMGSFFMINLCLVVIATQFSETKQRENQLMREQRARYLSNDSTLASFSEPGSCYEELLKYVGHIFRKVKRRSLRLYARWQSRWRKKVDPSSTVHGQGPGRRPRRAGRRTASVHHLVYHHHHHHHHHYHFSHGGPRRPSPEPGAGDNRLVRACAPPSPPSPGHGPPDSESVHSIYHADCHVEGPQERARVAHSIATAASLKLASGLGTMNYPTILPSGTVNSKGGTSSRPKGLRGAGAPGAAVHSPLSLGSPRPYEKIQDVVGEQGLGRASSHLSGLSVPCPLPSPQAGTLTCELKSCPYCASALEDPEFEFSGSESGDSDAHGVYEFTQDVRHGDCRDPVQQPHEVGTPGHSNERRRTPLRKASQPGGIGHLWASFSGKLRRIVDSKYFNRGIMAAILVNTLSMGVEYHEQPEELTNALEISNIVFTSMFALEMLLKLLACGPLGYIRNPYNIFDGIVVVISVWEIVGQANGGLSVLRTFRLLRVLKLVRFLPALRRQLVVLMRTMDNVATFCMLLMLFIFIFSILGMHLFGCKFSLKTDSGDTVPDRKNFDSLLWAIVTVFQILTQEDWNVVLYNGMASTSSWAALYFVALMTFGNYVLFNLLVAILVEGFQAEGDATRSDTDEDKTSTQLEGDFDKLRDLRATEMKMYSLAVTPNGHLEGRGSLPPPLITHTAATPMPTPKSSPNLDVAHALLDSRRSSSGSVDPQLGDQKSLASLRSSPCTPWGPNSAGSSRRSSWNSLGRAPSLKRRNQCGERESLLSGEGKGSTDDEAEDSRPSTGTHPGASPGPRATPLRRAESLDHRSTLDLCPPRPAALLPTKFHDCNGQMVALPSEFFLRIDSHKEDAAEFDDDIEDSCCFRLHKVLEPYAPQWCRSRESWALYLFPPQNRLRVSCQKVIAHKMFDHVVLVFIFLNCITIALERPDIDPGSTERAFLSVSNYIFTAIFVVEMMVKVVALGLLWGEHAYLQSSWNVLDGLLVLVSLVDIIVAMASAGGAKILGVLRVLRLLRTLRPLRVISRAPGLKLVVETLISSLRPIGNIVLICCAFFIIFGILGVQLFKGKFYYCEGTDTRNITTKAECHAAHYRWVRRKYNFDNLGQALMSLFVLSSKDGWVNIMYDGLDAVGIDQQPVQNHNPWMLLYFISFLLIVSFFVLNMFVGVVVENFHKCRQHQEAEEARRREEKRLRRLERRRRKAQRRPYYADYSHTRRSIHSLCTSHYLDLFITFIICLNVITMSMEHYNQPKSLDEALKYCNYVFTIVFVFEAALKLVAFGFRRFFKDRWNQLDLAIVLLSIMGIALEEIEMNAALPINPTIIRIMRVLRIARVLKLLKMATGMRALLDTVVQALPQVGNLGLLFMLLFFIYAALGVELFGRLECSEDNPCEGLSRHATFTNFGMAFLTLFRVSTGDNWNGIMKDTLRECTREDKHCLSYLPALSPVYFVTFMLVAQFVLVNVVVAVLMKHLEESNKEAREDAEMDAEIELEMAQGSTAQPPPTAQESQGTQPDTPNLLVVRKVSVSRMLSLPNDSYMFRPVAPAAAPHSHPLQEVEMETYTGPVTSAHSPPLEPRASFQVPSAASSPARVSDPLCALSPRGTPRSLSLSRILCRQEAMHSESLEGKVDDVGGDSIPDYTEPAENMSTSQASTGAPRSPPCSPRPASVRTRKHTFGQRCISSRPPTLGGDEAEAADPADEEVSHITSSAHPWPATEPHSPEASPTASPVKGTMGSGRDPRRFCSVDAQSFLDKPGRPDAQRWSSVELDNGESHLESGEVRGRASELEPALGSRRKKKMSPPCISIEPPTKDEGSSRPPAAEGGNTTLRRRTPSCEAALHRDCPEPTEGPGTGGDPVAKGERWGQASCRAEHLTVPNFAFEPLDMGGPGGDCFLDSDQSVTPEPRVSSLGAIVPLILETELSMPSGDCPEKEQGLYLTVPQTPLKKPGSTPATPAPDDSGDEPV
# Chain of recombinant Cav2.3 currents (Q15878 whole entry): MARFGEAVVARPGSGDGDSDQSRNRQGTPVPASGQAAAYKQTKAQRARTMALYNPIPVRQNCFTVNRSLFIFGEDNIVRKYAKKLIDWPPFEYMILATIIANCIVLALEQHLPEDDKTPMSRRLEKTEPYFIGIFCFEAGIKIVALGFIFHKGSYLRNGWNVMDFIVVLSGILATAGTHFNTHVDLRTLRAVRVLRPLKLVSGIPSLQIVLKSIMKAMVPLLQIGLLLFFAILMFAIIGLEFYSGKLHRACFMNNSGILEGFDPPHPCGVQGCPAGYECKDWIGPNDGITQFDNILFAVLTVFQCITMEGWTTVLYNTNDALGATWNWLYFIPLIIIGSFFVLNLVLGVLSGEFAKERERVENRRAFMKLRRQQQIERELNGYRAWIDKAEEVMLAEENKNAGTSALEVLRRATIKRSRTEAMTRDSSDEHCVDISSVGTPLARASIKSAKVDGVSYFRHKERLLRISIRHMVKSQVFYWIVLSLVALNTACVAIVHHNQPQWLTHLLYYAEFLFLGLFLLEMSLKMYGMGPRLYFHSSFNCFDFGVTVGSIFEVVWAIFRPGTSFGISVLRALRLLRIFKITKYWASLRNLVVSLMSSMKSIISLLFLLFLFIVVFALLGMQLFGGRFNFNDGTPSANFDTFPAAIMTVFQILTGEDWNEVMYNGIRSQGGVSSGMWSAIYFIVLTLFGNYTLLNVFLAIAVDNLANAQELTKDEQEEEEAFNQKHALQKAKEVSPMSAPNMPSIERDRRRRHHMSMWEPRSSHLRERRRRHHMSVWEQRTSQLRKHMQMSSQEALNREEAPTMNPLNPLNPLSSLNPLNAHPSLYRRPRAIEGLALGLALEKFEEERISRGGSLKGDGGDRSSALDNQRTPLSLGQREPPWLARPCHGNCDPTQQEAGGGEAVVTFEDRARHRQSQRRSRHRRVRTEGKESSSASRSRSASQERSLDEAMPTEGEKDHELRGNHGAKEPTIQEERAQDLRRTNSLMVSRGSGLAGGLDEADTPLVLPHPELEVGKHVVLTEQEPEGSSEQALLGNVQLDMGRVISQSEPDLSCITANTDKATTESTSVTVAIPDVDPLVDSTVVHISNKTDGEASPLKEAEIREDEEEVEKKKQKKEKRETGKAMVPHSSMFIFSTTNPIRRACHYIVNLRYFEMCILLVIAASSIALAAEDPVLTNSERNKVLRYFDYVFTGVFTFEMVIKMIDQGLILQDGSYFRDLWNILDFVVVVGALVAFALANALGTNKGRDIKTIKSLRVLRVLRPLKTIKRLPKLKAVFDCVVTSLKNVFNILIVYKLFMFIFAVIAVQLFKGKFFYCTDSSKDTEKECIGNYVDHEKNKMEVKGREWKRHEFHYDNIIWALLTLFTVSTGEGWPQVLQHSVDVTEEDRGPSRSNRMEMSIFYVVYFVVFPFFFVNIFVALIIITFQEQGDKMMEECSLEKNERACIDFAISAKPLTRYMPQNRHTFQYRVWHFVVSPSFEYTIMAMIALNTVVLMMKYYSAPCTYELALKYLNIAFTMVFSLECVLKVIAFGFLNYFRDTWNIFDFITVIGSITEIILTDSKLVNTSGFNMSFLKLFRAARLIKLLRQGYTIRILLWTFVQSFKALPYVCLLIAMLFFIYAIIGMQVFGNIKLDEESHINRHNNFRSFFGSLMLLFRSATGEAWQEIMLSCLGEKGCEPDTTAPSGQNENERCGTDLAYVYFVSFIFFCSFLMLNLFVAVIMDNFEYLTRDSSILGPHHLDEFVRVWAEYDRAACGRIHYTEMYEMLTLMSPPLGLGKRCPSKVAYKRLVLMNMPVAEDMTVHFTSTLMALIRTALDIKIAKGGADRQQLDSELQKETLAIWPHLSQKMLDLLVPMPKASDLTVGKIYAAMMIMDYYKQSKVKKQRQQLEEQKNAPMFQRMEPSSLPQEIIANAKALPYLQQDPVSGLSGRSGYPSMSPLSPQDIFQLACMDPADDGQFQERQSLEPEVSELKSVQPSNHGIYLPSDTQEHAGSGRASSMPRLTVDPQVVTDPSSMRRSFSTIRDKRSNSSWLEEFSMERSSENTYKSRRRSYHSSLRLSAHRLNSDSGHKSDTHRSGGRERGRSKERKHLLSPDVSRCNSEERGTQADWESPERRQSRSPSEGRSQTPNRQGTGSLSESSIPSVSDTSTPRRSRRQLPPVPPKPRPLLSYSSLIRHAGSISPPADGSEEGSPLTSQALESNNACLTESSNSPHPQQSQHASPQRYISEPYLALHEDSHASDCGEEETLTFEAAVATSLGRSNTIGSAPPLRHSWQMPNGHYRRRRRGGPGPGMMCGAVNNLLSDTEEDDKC
compound,measurement,setting,value
"C[C@]12CC[C@H]3[C@@H](CC[C@H]4C[C@@H](C#N)CC[C@@H]43)[C@@H]1CC[C@@H]2O [ECN, (3β,5α,17β)-17-hydroxyestrane-3-carbonitrile]","effect on voltage-gated Na+, K+, N- and L-type HVA Ca2+ channels, glutamate and GABA-gated channels",[1],very little effect
same,IC50,[2],16 µM
same,maximal block of T-current,[3]; DRG neurons,40%
same,IC50,"[3]; read-out: IC50, block of T-channels in rat DRG neurons, voltage-dependent block",0.3 µM
"(3α,5α)-3-hydroxy-13,24-cyclo-18,21-dinorchol-22-en-24-ol [CDNC24]",anesthetic in tadpoles,[4],anesthetic
same,effect on T-currents in DRG cells,[3],no effect
same,effect on GABAA currents,[5],potent potentiator
CC1(C)C[C@@H](CN2CCC(F)(CNC(=O)c3cc(Cl)cc(Cl)c3)CC2)CCO1 [TTA-P2],effect on ADP and rebound AP,[6],completely inhibited
same,rebound action potentials,"[6]; 5 minutes, control 1.25±0.25",0±0 APs
same,input resistance (Rin),[6]; control 194±37,191±29 MΩ
same,resting membrane potential (RMP),[6]; control −57±2,−58±3 mV
same,increase of thermal PWLs from baseline,[7],up to 50%
"CNC1(c2ccccc2Cl)CCCCC1=O (stereo not shown) [ketamine, reference compound]",days required to reach learning criterion in RAM,"[8]; 3β-OH at 10 mg/kg, ketamine at 40 mg/kg at PND 7, tested from PND 53",significantly impaired
same,rats reaching criterion in the allotted time,[8]; p-p plot,about 85%
same,rats that did not learn the task during the allotted time,[8]; [13],about 15%
same,rats that had reached criterion at the same point of training (p-p plot),[8]; [13],28%
same,caspase-3 activation compared with 3β-OH at equipotent dose,"[9]; 20 mg/kg i.p. every hour, six doses, all brain regions",significantly higher
same,"increase in caspase-3 activation, higher dose compared with twice lower dose","[9]; 40 mg/kg vs 20 mg/kg i.p., 6 doses hourly",3-6 fold
same,caspase-3 activation at higher dose compared with vehicle,"[9]; 3β-OH 10 mg/kg or ketamine 40 mg/kg i.p., 6 doses hourly, 3β-OH: except subiculum",significant increase
same,daily weight gain among the groups,[10],no difference
same,calculated EC50 (duration of LORR),[11],62.9 ± 3.9 mg/kg
"FC(F)OC(Cl)C(F)(F)F (stereo not shown) [isoflurane, reference compound]",inhibition at 300 µM,[12],69 ± 4%
